Data published in article PMC6919601, “Identification of Plasmodium dipeptidyl aminopeptidase allosteric inhibitors by high throughput screening” (PLoS ONE, 2019).
About 230 (0.21%) of roughly 110,000 compounds showed an effect of 50% or more. Some of the results follow.

What follows are compounds tested against DPAP1 (Plasmodium falciparum, UniProt Q8IIJ9) (assay: primary screen, percent inhibition; read by cleavage of a fluorogenic dipeptide substrate; higher = more effect of the substance).
Parameters: species or system P. falciparum D10 trophozoite lysates; single well
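Also: 30 min substrate incubation versus DMSO and 10 µM JCP410 controls.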

Chain of DPAP1 (Q8IIJ9 whole entry, looked up): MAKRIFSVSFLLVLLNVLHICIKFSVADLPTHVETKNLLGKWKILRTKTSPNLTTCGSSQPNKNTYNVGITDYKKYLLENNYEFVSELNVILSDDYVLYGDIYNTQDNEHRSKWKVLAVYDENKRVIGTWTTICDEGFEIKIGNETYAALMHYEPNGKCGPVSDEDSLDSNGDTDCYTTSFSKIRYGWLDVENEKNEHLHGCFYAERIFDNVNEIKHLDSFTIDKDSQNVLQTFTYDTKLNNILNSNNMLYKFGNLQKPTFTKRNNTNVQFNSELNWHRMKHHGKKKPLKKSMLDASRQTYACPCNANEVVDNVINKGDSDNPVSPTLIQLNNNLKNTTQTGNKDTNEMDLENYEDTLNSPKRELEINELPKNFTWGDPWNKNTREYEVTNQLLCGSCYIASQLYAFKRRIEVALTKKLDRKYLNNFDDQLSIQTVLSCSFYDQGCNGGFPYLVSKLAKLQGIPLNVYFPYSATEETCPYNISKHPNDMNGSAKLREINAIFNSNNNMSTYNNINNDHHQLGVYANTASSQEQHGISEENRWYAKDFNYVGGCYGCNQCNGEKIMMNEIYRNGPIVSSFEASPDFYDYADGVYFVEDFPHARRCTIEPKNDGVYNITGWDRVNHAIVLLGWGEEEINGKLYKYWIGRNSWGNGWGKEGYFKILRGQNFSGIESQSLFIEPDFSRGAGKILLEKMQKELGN

SMILES	% Inhibition @ 10 uM
COc1ccc(CNCc2c(C(=O)O)n(Cc3ccccc3Cl)c3ccccc23)cc1	5.09%
CSCC[C@H](NC(=O)c1ccccc1)C(=O)NCC#N	-0.214%
O=C(O)c1cc2nc(-c3ccc(Cl)c(Cl)c3)cc(C(F)(F)F)n2n1	7.59%
O=C(Nc1ccc2c(c1)OCCO2)c1ccc(C2SCC(=O)N2CCc2ccccc2)cc1 (stereo not drawn)	0.907%
O=C(O)c1cccc(CN2C(=O)SC(Nc3cccc(C(=O)O)c3)C2=O)c1 (stereo not drawn)	-10.2%
O=C(C1CCC(CNc2c(N3CCCC3)c(=O)c2=O)CC1)N1CC=C(c2ccccc2)CC1 (stereo not drawn)	-3.96%
COc1ccccc1CNS(=O)(=O)c1c(C)nc(O)nc1O	0.992%
CCCCNC(=O)C1c2ccccc2C(=O)N(CC(C)C)C1c1cccs1 (stereo not drawn)	3.84%
CCOC(=O)c1cc(-c2nnc(-c3ccc(Cl)cc3)o2)c(C)nc1C	3.63%
COc1cc([N+](=O)[O-])cc2c1NC(c1ccc(Cl)cc1Cl)=NO2	-2.63%
COc1cccc(C2C(C#N)=C(N)Oc3[nH]nc(C(C)(C)C)c32)c1 (stereo not drawn)	-0.759%
Cc1ccsc1CCNC(=O)CCc1nc2cccnc2n1-c1ccccc1	-4.74%
CC1CCN(Cc2nc3c(c(=O)n(C)c(=O)n3C)n2CCN2CCOCC2)CC1	0.627%
O=C(O)CCC(=O)/N=C1\SC2CS(=O)(=O)CC2N1Cc1ccccc1Cl (stereo not drawn)	0.558%
COc1ccccc1-c1c(C)nn2c(SCC(=O)NCC(C)c3ccccc3)cc(C)nc12 (stereo not drawn)	-1.7%
CO/C(O)=C/c1nc2ccccc2nc1O	-5.33%
Cc1ccc2[nH]c3c(c2c1)CCCC3NCCCN(C)C (stereo not drawn)	-6.7%
COc1ccc(/C=C/C(=O)c2c(O)nc(C)c3c2CCCC3)cc1	1.83%
COC(=O)C1=CN(C23CC4CC(CC(C4)C2)C3)C=C(C(=O)OC)C1c1cc(OC)c(OC)c(OC)c1	-5.28%
O=C(Cn1cnc2c(oc3ccccc32)c1=O)N1CCOCC1	-1.19%
C=CCOc1c(Cl)cc(/C=C2/NC(=O)N(c3ccccc3)C2=O)cc1OC	-5.45%
Cc1ccc(Cc2nc3ccccc3[nH]2)cc1	-4.18%
Cc1cc2c(c(=O)n1Cc1cccnc1)C(c1ccc3c(c1)OCO3)C(C#N)=C(N)O2 (stereo not drawn)	-1.38%
COc1ccc(OCCCc2c(C)n[nH]c2C)cc1	-1.62%
Cc1ccc(OC(C)C(=O)Nc2cccc(C)c2C)cc1 (stereo not drawn)	-4.02%

SMILES	% Inhibition @ 10 uM
CCCCCC(=O)Nc1ccc(N(CC)CC)cc1	1.28%
COC(=O)C1C(=O)N(c2ccc(C)cc2)C(c2ccccc2)=NC1=S (stereo not drawn)	-5.48%
COc1cccc(CNCc2cccnc2)c1OCc1ccccc1	-1.65%
CC1(C)OC(=O)C(=Cc2c[nH]c3ccccc23)C(=O)O1	16.1%
O=C(NC(Cc1cc(I)c(O)c(I)c1)C(=O)N1CCN(S(=O)(=O)c2ccccc2)CC1)N1CCOCC1 (stereo not drawn)	-2.35%
CCc1ccc(C2CC(c3ccccc3Cl)n3nnnc3N2)cc1 (stereo not drawn)	4.67%
Cc1cc(C)c(NC(=O)CC(=O)Nc2c(C)cc(C)cc2C)c(C)c1	-8.12%
O=C(NCc1cccs1)c1cc2c(s1)CS(=O)(=O)C2	-10.4%
CCOC(=O)c1[nH]c2ccccc2c1NC(=O)c1cc(C)cc(C)c1	0.121%
Cc1ccc([C@H]2C(C#N)=C(N)Oc3cc(C)oc(=O)c32)o1	-0.142%
COc1cc(/C=N/n2c(C)nnc2C)ccc1O	-3.98%
COc1ccc(C2/C(=C(/O)OCc3ccccc3)C(C)=Nc3ncnn32)cc1 (stereo not drawn)	6.07%
COc1ccccc1OC1OC(CO)C(O)C(O)C1O (stereo not drawn)	-5.9%
O=C(CCCc1c[nH]c2ccccc12)N1CCN(S(=O)(=O)c2ccc(F)cc2)CC1	-1.46%
Cc1ccc(S(=O)(=O)N(CC(=O)Nc2cccc(F)c2)C2CCCCC2)cc1	0.964%
COc1ccc(N(CC(=O)Nc2cc(C)ccc2C)S(C)(=O)=O)cc1	-0.796%
COc1ccc(N(CC(=O)NC2CCCC2)S(=O)(=O)c2ccccc2)cc1OC	-4.43%
Cc1n[nH]c(C)c1S(=O)(=O)N1CCCC(C(=O)NCc2cccs2)C1 (stereo not drawn)	0.708%
COc1ccc(Br)cc1C1=N/C(=C\C(C)=C\c2ccccc2)C(=O)O1	10.5%
CC(C)(C)Nc1nc(NC(C)(C)C)nc(N2CCOCC2)n1	4.22%
N#CC1=C(N)Oc2[nH]nc(C34CC5CC(CC(C5)C3)C4)c2C1c1ccc(F)cc1 (stereo not drawn)	-8.85%
O=C(Nc1ccc([N+](=O)[O-])cc1Br)C1CC1c1ccccc1 (stereo not drawn)	2.38%
CC12CCC(=O)N1c1ccccc1C(=O)N2c1ccccc1 (stereo not drawn)	-4.41%
CCCCN1C(=O)c2[nH]nc(-c3ccccc3O)c2C1c1ccc(OCC)c(OC)c1 (stereo not drawn)	0.366%
O=C(NCC1CCCO1)C1CCC(CNS(=O)(=O)c2cccc3nsnc23)CC1 (stereo not drawn)	4.54%

SMILES	% Inhibition @ 10 uM
O=C(NC1CCCCC1)/C(=C/c1ccccc1)NC(=O)c1ccccc1	10.4%
O=C(CCNC(=O)Cn1ccc2ccccc2c1=O)NCCCCN1CCOCC1	7.39%
Cc1ccc(-c2nc(-c3ccccc3Cl)no2)cc1	-2.63%
NC(=S)N/N=C/c1ccc(-c2cccc(C(=O)O)c2)o1	2.95%
O=C1OCCC1C(=O)c1ccccc1 (stereo not drawn)	2.38%
CC(CCc1ccc(O)cc1)NC1CCCCCCC1 (stereo not drawn)	1.29%
COc1ccc(C2=NN(C(C)=O)C(c3cc4cccc(C)c4nc3Cl)C2)cc1OC (stereo not drawn)	-1.06%
Cn1nnc2c(N3CCC4(CC3)OCCO4)nc(Cc3ccc(Cl)cc3Cl)nc21	-1.47%
Cc1ccnc(NC(=O)COc2ccccc2)c1	0.583%
CC(C)(C)OC(=O)N1CCN(c2ccc(-c3cc(F)cc(N4CCCCC4C(=O)NCC#N)c3)cc2)CC1 (stereo not drawn)	-1.41%
Cc1ccc(NC2SC(=O)N(Cc3cccc(C(=O)O)c3)C2=O)cc1 (stereo not drawn)	-11%
COC(=O)c1c(-c2ccccc2)nn(-c2ccccc2)c1C(=O)OC	-5.5%
Cc1c2ccc(Cl)cc2s[n+]1C	0.627%
O=C(O)c1ccccc1C(=O)Nc1cc(Cl)cc(Cl)c1	-6.36%
Cc1ccc(C2c3c(oc4ccccc4c3=O)C(=O)N2CCCN2CCOCC2)cc1 (stereo not drawn)	-2.91%
Cc1ccc(NC(=O)CC2Sc3ccc(C(F)(F)F)cc3NC2=O)c(C)c1 (stereo not drawn)	-0.0938%
CCCCOc1ccc(C(=O)N(Cc2cccc(F)c2)C2CCS(=O)(=O)C2)cc1 (stereo not drawn)	3.62%
CCC(C(=O)NCc1ccc(C)o1)n1nc(C)c2c(C)n(-c3ccccc3)nc2c1=O (stereo not drawn)	-10.2%
CC(=O)c1c(C)c[nH]c1C	4.35%
O=C(CCSCCC(=O)N1CCCCCC1)N1CCCCCC1	-1.36%
Cc1cc(C)c2nc(O)c(NC(N)=S)nc2c1	-3.13%
COc1cc(CN2CCCCCC2)cc2c1OCO2	5.03%
Cc1noc2ncnc(N3CCCC(C(=O)NCCCN(C)Cc4ccccc4)C3)c12 (stereo not drawn)	0.802%
Cc1ccc2c(c1)cc1c(=O)n(Cc3cccc(C(F)(F)F)c3)nc(C)n12	3%
Cc1cccc2c(C(=O)O)cc(-c3cc4ccccc4o3)nc12	0.709%

SMILES	% Inhibition @ 10 uM
Cc1nc2n(CC(=O)N3CCCCC3)c3ccccc3n2n1	3.59%
N#Cc1c(NC(=O)CN2CCCCC2)sc2c1CCCC2	6.11%
CN1CCCN(Cc2ccc(F)cc2F)CC1	3.25%
CCn1c2ccccc2c2cc(CNC3CCCC3)ccc21	0.219%
Cc1ccc(C)c(C2C(C#N)=C(N)Oc3[nH]nc(-c4ccc5c(c4)OCO5)c32)c1 (stereo not drawn)	-1.06%
CCN1CCN(c2nc(-c3cccc(Cl)c3)c3c(n2)-c2ccccc2OC3)CC1	5.29%
CC(C)N(Cc1ccccc1)S(=O)(=O)c1ccc(-n2cccn2)cc1	-0.913%
Cc1ccc(C)c(N(CC(=O)NCCSc2ccccn2)S(C)(=O)=O)c1	-6.52%
O=C(NCCCN1CCCCC1)C1CCN(S(=O)(=O)c2cccc3nsnc23)CC1	-9.18%
COc1ccc(/C=C2\N=C(c3ccccc3OC)OC2=O)cc1	-1.65%
CCOC(=O)C1=C(C)N=c2s/c(=C\c3cccs3)c(=O)n2C1c1ccc2c(c1)OCO2 (stereo not drawn)	1.72%
Nc1nc2sc3c(c2cc1C(=O)NCC(=O)O)CCCC3	-3.48%
Cc1nn(CC(=O)NC(C)CCc2ccccc2)c(=O)c2nn(-c3ccccc3)c(C)c12 (stereo not drawn)	-3.05%
N#C/C(=C\c1cccc2ccccc12)c1nc(-c2ccc(Cl)cc2)cs1	-0.268%
CC1CCCC(NC(=O)Cn2ncc3c4ccccc4nc-3c2O)C1C (stereo not drawn)	0.244%
O=C(CSc1nc2cc(Br)ccc2[nH]1)NC1CCCCC1	1.89%
Cc1ccc(-n2nc3c(=O)n(CCCC(=O)N(C)Cc4ccccc4)nc(C)c3c2C)cc1	-9.2%
CCOC(=O)c1c(N)sc2c1CC(C)(C)OC2	13.1%
CC(=O)c1cccc(NC(=O)c2cccc(Cl)c2)c1	-1.88%
CC1(C)CC(=C2C(=O)c3ccccc3C2=O)C=C2c3ccccc3C(=O)C21 (stereo not drawn)	-11.3%
COc1cc(C2c3c(-c4ccccc4O)n[nH]c3C(=O)N2Cc2ccco2)ccc1O (stereo not drawn)	-3.12%
COc1cc(C(=O)CC2OC(O)C(Cl)=C2Cl)ccc1Cl (stereo not drawn)	-6.18%
COc1ccc(N2CCN(C(=O)c3ccc(N(C)S(C)(=O)=O)cc3)CC2)cc1	3.58%
CC(C)NC(=O)COc1ccc(S(=O)(=O)NC2CCCCC2)cc1	4.11%
